Assay results: the BET-seq Pho4 binding data (Le et al. 2018)
The list shows a part of the results. The energies were worked out here from pooled read counts, against the library average; single values are noisy.

Molecular target: T1, Pho4 (S. cerevisiae) (UniProt P07270)
T1 sequence: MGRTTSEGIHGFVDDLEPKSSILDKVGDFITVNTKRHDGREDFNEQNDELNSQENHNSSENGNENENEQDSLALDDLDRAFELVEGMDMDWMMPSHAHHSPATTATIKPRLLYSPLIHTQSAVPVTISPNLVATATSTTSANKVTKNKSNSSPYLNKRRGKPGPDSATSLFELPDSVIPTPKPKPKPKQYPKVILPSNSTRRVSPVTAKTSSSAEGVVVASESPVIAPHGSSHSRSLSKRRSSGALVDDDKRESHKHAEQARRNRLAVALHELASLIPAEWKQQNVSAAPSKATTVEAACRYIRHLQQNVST
Assay: relative binding free energy (BET-seq); higher = weaker binding
Details: reference: library average

| Sequence | relative binding free energy [kcal/mol] |
| --- | --- |
| TTATACACGTGTGATG | -0.03 |
| GGGGCCACGTGATGTG | 0.04 |
| TGTTGCACGTGAGTTA | 0.22 |
| ATGCGCACGTGGTGGT | -0.23 |
| AGTAGCACGTGTGCCT | 0.01 |
| GGAGCCACGTGATGGT | 0 |
| TGGTGCACGTGAAGTA | 0.07 |
| TGTTGCACGTGATGAG | 0.03 |
| TGGCGCACGTGGTGTT | -0.14 |
| TTTTGCACGTGTAGTC | 0.18 |
| TAAGGCACGTGGATTA | 0.09 |
| TTCATCACGTGTATAT | 0.1 |
| CTGGGCACGTGGATTG | -0.08 |
| CGTTGCACGTGTGTAT | 0.01 |
| TCGAACACGTGGTTTG | -0.07 |
| GGTGACACGTGAGCGA | 0.34 |
| TGAGACACGTGTTCGT | 0.02 |
| GCTATCACGTGAAGTG | 0.45 |
| ACGGGCACGTGGATTG | -0.07 |
| CTGTGCACGTGAGGAG | 0.17 |
| GGGTGCACGTGGAGCA | 0.05 |
| TTACGCACGTGGAGTG | -0.06 |
| ACAGTCACGTGAGGGT | 0.13 |
| GGTGGCACGTGGATTT | 0.04 |
| AGTGACACGTGTTTGT | -0.06 |

| Sequence | relative binding free energy [kcal/mol] |
| --- | --- |
| TGATTCACGTGTGCTT | 0.28 |
| ACATGCACGTGGTGGT | -0.26 |
| GGTAGCACGTGTCGGC | -0.08 |
| TATTTCACGTGTGGAT | 0.37 |
| AGGGGCACGTGGAATA | -0.09 |
| TGCGACACGTGAGGTA | 0.2 |
| TGGTTCACGTGAGGGG | 0.48 |
| GTCTACACGTGTAGGT | 0.17 |
| GGGCACACGTGTGTTT | 0.03 |
| TAGGGCACGTGTGTGT | -0.03 |
| AGGGTCACGTGTAAAG | 0.18 |
| ATTGACACGTGCTGTG | -0.03 |
| GACGTCACGTGGGTGA | 0.19 |
| GTGGTCACGTGGGATG | 0.07 |
| GGAAGCACGTGAGTTG | 0.26 |
| TTACACACGTGAGGGA | 0.21 |
| TTTTGCACGTGGCTTG | -0.12 |
| TGATTCACGTGCAGGA | 0.26 |
| AATGGCACGTGAGGCA | 0.18 |
| TGTATCACGTGGACTT | 0.12 |
| ATAGACACGTGTTTGA | 0.03 |
| TGAGTCACGTGCTGAT | 0.04 |
| ATTGTCACGTGGCTGA | 0.01 |
| TTGTACACGTGACTTT | 0.21 |
| GTTGACACGTGCAGTG | 0.09 |

| Sequence | relative binding free energy [kcal/mol] |
| --- | --- |
| TTATTCACGTGAGTTC | 0.36 |
| CTAAACACGTGAGGGT | 0.1 |
| GAGTGCACGTGTAAGT | 0.11 |
| AGGAACACGTGGGGCT | -0.12 |
| TGGCTCACGTGTGTCG | 0.24 |
| TGTCGCACGTGGCTAG | -0.02 |
| AGTGTCACGTGATATG | 0.26 |
| TATTACACGTGTTAAA | 0.25 |
| TCGGTCACGTGGGGGG | 0.04 |
| TGGTTCACGTGTAATA | 0.25 |
| AGCTGCACGTGGTCGT | -0.08 |
| TGCTTCACGTGGTCGG | 0.13 |
| ATTTGCACGTGGATTT | 0.07 |
| TAAAACACGTGGTGGG | -0.01 |
| CAGAGCACGTGTGTTA | -0.03 |
| AGCTGCACGTGGTGGG | -0.14 |
| GGAAACACGTGAGTGT | 0.33 |
| AAGTCCACGTGTTAGT | 0.06 |
| GTAATCACGTGGGTAT | 0.09 |
| TATATCACGTGGTCAG | 0.09 |
| CTATTCACGTGGAGTG | 0.14 |
| GGAGGCACGTGCTGTA | -0.21 |
| GTTATCACGTGTAGGT | 0.24 |
| GGGGTCACGTGAGATG | 0.3 |
| GTTAACACGTGGCGGG | -0.06 |

| Sequence | relative binding free energy [kcal/mol] |
| --- | --- |
| TAACTCACGTGTGGTT | 0.34 |
| CTTTTCACGTGGGTGA | 0.09 |
| GCTGTCACGTGGGGCA | -0.05 |
| CCTTGCACGTGGGGGA | -0.11 |
| GGGGTCACGTGAGAAG | 0.46 |
| CGGTACACGTGGCTGG | 0.02 |
| GCCGGCACGTGTGGGG | -0.06 |
| CGAGTCACGTGTGGCG | 0.03 |
| ATTTACACGTGTATTG | 0.13 |
| CTGGGCACGTGGGCGT | -0.2 |
| TCTTACACGTGGTCGG | 0 |
| TAGTTCACGTGGTCAT | 0.08 |
| TTTAGCACGTGGTCTG | -0.16 |
| GATTACACGTGTGAAG | 0.22 |
| AGTGCCACGTGGTTGC | -0.16 |
| CTGTCCACGTGTTGTG | 0.09 |
| GAGGTCACGTGTGAAA | 0.37 |
| TTCGGCACGTGCTGCG | -0.13 |
| GGAATCACGTGATTGA | 0.31 |
| CGTTCCACGTGGGATG | 0.05 |
| TTAGGCACGTGGACAT | -0.21 |
| TTTCTCACGTGCGGGA | 0.21 |
| AACTGCACGTGTTTGT | -0.08 |
| TTAGTCACGTGAAAGT | 0.28 |
| AGCGTCACGTGTGGTG | 0.11 |

| Sequence | relative binding free energy [kcal/mol] |
| --- | --- |
| GGAGGCACGTGGTCGC | -0.16 |
| AGTCGCACGTGAGGGT | 0.16 |
| TGCAGCACGTGAGTTG | 0.16 |
| AGCAGCACGTGTATGT | -0.08 |
| GGCTGCACGTGTTGGA | -0.05 |
| TGACACACGTGTGAGG | 0.06 |
| TTATTCACGTGAGATG | 0.39 |
| CGATTCACGTGGGATT | 0.29 |
| GATGGCACGTGCTGAT | -0.06 |
| TGGGTCACGTGAAGGC | 0.24 |
| TGATTCACGTGAAAAG | 0.39 |
| AGAGGCACGTGTCAGG | -0.06 |
| CTTGTCACGTGTCGGG | 0.21 |
| GGGGGCACGTGTAGTT | 0.03 |
| TAAGACACGTGAATGT | 0.37 |
| TTTGCCACGTGAGGTC | 0.27 |
| AGTTGCACGTGATGTT | 0.21 |
| TATGTCACGTGGCTGG | 0.04 |
| GGGCTCACGTGAAGAT | 0.49 |
| CTTTTCACGTGGTTTC | 0.29 |
| TAGCTCACGTGGGGAA | 0.11 |
| AGGGACACGTGTGCTT | -0.04 |
| TAGGACACGTGGCTTT | -0.04 |
| TATTGCACGTGGAGGA | -0.08 |
| GTTGACACGTGTACTG | 0.06 |

| Sequence | relative binding free energy [kcal/mol] |
| --- | --- |
| GGGGTCACGTGACATT | 0.34 |
| TTGACCACGTGATTTT | 0.27 |
| CATTGCACGTGGGTGC | -0.07 |
| GAAGGCACGTGGGCAT | -0.1 |
| GATTTCACGTGGGTTG | 0.3 |
| GTTGACACGTGAGAAG | 0.27 |
| TCGGGCACGTGGTAAG | -0.13 |
| TATTGCACGTGTGGGG | 0.09 |
| TTATTCACGTGTGCTG | 0.21 |
| GGTTTCACGTGTAGAT | 0.43 |
| ACAGGCACGTGGGCGT | -0.24 |
| GTGATCACGTGTGGGG | 0.07 |
| AAGTTCACGTGCTGTT | 0.09 |
| CGGGTCACGTGCGGGA | 0.16 |
| TGCGTCACGTGGAGAG | 0.08 |
| TGTAACACGTGTTAGA | -0.01 |
| CATGCCACGTGGTGGT | -0.24 |
| AGGGTCACGTGGGGGC | -0.03 |
| GTCGTCACGTGCTGGT | 0.08 |
| GTGTTCACGTGTCAAG | 0.27 |
| TTGTTCACGTGTTAAA | 0.32 |
